Measured values from paper PMC4336329 (PLoS ONE, 2015).
The whole screen tested about 310,000 compounds, of which about 14,000 (4.5%) showed an effect of 50% or more. The effect is printed as a negative number. Some of the results follow. Where a SMILES comes first, the peptide text is derived from it. The star is where a group is joined. Boc = CC(C)(C)OC(=O)*

target: human ether-à-go-go-related gene (hERG) potassium channel (human, UniProt Q12809); assay: primary screen, population patch clamp on CHO cells stably expressing hERG
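Also: peak tail current of the secondary pulse compared with the same well before compound.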

human ether-à-go-go-related gene (hERG) potassium channel, sequence (Q12809 whole entry, looked up): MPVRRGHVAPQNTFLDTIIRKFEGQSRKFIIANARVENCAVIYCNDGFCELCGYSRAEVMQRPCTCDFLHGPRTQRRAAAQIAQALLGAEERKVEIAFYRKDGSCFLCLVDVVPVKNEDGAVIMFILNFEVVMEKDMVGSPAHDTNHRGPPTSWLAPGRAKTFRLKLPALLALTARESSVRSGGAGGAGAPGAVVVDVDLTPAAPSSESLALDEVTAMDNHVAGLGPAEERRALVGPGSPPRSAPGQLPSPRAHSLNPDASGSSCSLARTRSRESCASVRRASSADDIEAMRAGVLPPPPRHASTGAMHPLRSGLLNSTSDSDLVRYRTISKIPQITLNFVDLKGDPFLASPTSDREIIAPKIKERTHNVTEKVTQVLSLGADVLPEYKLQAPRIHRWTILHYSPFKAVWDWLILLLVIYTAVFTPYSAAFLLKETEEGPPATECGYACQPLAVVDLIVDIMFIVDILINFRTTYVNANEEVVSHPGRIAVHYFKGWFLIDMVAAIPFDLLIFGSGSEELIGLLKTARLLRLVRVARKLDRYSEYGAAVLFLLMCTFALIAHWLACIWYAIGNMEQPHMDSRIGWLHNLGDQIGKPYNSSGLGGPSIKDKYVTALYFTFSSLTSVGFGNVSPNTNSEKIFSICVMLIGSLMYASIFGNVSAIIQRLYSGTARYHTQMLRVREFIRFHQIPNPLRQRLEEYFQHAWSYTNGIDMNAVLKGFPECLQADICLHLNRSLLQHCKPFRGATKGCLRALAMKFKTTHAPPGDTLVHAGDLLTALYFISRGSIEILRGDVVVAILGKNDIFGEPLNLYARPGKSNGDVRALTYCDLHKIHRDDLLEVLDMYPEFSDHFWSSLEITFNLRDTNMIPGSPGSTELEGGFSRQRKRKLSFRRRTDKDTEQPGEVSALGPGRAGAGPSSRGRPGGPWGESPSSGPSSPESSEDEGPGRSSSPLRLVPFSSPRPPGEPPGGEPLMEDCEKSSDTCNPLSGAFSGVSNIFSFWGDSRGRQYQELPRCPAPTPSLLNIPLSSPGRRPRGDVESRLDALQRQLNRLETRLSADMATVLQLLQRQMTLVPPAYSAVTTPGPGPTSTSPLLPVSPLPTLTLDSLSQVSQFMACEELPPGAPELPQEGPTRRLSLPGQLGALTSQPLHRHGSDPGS

Row | SMILES | hERG current change (%, negative = inhibition) at 10uM
1 | NCCN1CCN(CC(=O)N2c3ccccc3C(=O)Nc3cccnc32)CC1 | 10.7%
2 | NNC(=O)c1[nH]c2ccc(Br)cc2c1-c1ccccc1 | -2.55%
3 | COc1ccc(CN2CC(C(=O)NCCN3CCOCC3)CC2=O)cc1 (centres unmarked) | 6.62%
4 | CC(C)NC(=O)NC(=O)COc1ccc(Br)cc1Br | 4.33%
5 | CC(C)C(=O)NCCc1c[nH]c2ccccc12 | 9.96%
6 | COc1ccc(-c2nc(C#N)c(NCC3CCCO3)o2)cc1 (centres unmarked) | -8.44%
7 | Cc1ccc(NC(=O)/C(CN(C)C)=N\O)cc1 | 5.33%
8 | CC(C)CC(NC(=O)C(NC(=O)C1CCC(=O)N1C(=O)OCc1ccccc1)C(C)C)C(=O)N1CCCC1C(N)=O (centres unmarked) | 24.7%
9 | NC(=O)CSc1nc2ccccc2n1Cc1ccccc1 | -8.74%
10 | COc1ccc(NC(=S)NCc2ccc3c(c2)cc(C)n3C)cc1 | 5.5%
11 | CSCCC(NC(=O)c1ccco1)C(=O)N1CC(C)OC(C)C1 (centres unmarked) | -18.9%
12 | Nc1ccc(C(=O)n2c3ccccc3c3ccccc32)cc1 | 18.8%
13 | Oc1oc(-c2cccc3ccccc23)nc1/C=N/c1nccs1 | -2.84%
14 | Cc1ccc(S(=O)(=O)N2c3ccccc3NC(=O)C2CC(=O)Nc2ccccc2)cc1 (centres unmarked) | 6.45%
15 | Cc1c(C(=O)OCC(=O)NCc2ccco2)oc2ccccc12 | 2.46%
16 | O=C(C(Cc1ccccc1)n1cccc1)N1CCN(c2cccc(Cl)c2)CC1 (centres unmarked) | -14.7%
17 | COc1ccc(S(=O)(=O)N2CCN(Cc3ccc4c(c3)OCO4)CC2)c2ccccc12 | 8.89%
18 | O=C(CSc1nnc(-c2cccnc2)n1-c1ccc(SC(F)F)cc1)N1CCCc2ccccc21 | -7.29%
19 | O=C(OCC(=O)N1CCC(c2ccccc2)=N1)c1ccc([N+](=O)[O-])s1 | -34.7%
20 | O=C(Nc1ccc(NC(=O)c2ccco2)c(Cl)c1)c1ccccc1 | -4.14%
21 | Cc1cc(N2CCCCC2)nc2c(C)cccc12 | 15%
22 | Cl.Fc1ccc(Nc2nc(N3CCOCC3)nc(N3CCOCC3)n2)cc1Cl | 7.95%

Row | SMILES | hERG current change (%, negative = inhibition) at 10uM
23 | O=C(CSc1nnc(CNC(=O)c2ccccc2F)o1)NC1CCCC1 | 10.7%
24 | Cc1ccc(S(=O)(=O)N(C)c2ccc(OCC(=O)Nc3cccc(-n4cnnn4)c3C)cc2)cc1 | -32.1%
25 | COc1ccc(OC)c2[nH]c(=O)c(CCNS(=O)(=O)c3ccc(Cl)cc3)cc12 | -25.4%
26 | CCC(C)N(C(=O)COc1ccccc1C#N)C1CCS(=O)(=O)C1 (centres unmarked) | -4.56%
27 | Br.Fc1cccc(CNCc2ccc3c(c2)OCO3)c1 | 1.44%
28 | CCCc1nc2c(=O)n(C)c(=O)[nH]c2n1C | 4.79%
29 | CCCNC(=S)N1CCC(n2cnc3ccccc32)CC1 | -36.4%
30 | CCCNc1nc2c(c(=O)n(C)c(=O)n2C)n1Cc1ccc(F)cc1 | -12.8%
31 | COC(=O)C1=C(C)N(C)C(=S)N(C)C1c1cccc(Br)c1 (centres unmarked) | -14.3%
32 | Oc1cccc(/C=C/c2ccc3cccc(O)c3n2)c1 | 17.2%
33 | FC(F)(F)c1ccc(C2[C@H]3CN(CC4CCCCC4)[C@H](c4ccccc4)C34CC2(c2cccnc2)C4)cc1 (some centres unmarked) | 0.391%
34 | CCC(C)C(NC(=O)OC(C)(C)C)C(=O)NC(C(=O)NC(C)C(N)=O)C(C)C (stereo not drawn) (Boc-Ile-Val-Ala-NH2; configuration not given here) | 24.3%
35 | CC(C)c1ccc(OCC(O)CNC(C)c2ccccc2)cc1.Cl (centres unmarked) | -65.3%
36 | N#CC1=C(N)Oc2n[nH]c(-c3cccs3)c2C1C1C=CCCC1 (centres unmarked) | 8.52%
37 | O=C(COC(=O)CNC(=O)c1ccccc1F)NCC(F)(F)F | 9.36%
38 | Cc1ncoc1C(=O)Nc1cccc(Cl)c1 | -7.91%
39 | COC(=O)c1ccc2c(=O)n(Cc3ccc4c(c3)OCO4)c(SCC(=O)N3CCCC3)nc2c1 | -52.4%
40 | O=C(CC(=O)c1c(F)cccc1Cl)c1ccccc1O | 6.51%
41 | COc1cc(C(=O)Oc2cc(C)cc(C)c2)cc(OC)c1OC | 30.3%
42 | CN(C)Cc1cc(CN(C)C)c(O)c(CCc2ccccc2)n1.Cl | 10.8%
43 | Cc1cccc(N2CCN(C(=O)CSc3ccsc3[N+](=O)[O-])CC2C)c1 (centres unmarked) | -10.8%
44 | O=C(O)c1ccc(NC(=S)NC(=O)c2ccc(-c3ccccc3)cc2)cc1 | 19.4%

Row | SMILES | hERG current change (%, negative = inhibition) at 10uM
45 | O=[N+]([O-])c1ccc(O)c(C=Nc2ccc3c(c2)OCCO3)c1 | 6.23%
46 | CCC(NS(=O)(=O)c1ccc(C)cc1)C(=O)N1CCN(c2ccccn2)CC1 (centres unmarked) | -6.59%
47 | O=C(O)c1cc2ccccc2n1-c1ccccc1 | 9.57%
48 | Cc1ccnc(NC(=O)Nc2ccc3c(c2)N(C)C(=O)CS3)c1 | 4.14%
49 | COc1ccc(CNC(=O)C2CCC(=O)N(CCCN3CCCC3=O)C2)cc1 (centres unmarked) | 11.2%
50 | COc1cccc(C(=O)Nc2cc(=O)n(C)c(=O)n2C)c1 | 17.3%
51 | O=C(CC1C(=O)NCCN1C(=O)Nc1ccccc1)Nc1ccc(F)cc1 (centres unmarked) | 3.45%
52 | N#CC(C(=O)NC1CCCCC1)c1nc2ccccc2nc1N1CCN(c2ccccc2F)CC1 (centres unmarked) | -0.245%
53 | COc1cn(-c2ccccc2)nc1C(=O)OCC(=O)Nc1ccc(C)c(C)c1 | 7.08%
54 | Cc1c(N(C)C)nc2ccccc2c1N.O=C(O)C(=O)O | -46.5%
55 | Cc1ccc(C(=O)Nc2ncc([N+](=O)[O-])s2)cc1 | 9.09%
56 | Cn1c(=O)oc2cc(S(=O)(=O)NCCN3CCN(c4ccccc4)CC3)ccc21 | -10.9%
57 | COC(=O)c1ccc(S(=O)(=O)NCc2ccccc2)n1C | -5.1%
58 | Cc1cc(OCC(=O)N2C[C@H]3C[C@@H](C2)c2cccc(=O)n2C3)c2c(C)c(C)c(=O)oc2c1 | 0.123%
59 | CCOc1ccc(-c2nonc2NC(=O)c2ccco2)cc1OCC | 19.2%
60 | O=C(O)CCSc1nc2ccccc2c(=O)[nH]1 | 5.02%
61 | CC1(C)CC(=O)C2=C(C1)N(c1ccccc1)C(N)=C(C#N)C2c1ccccc1 (centres unmarked) | 2.6%
62 | Cc1nn(CCc2nn[nH]n2)c2nc(C(F)(F)F)cc(C(F)(F)F)c12 | 6.25%
63 | CCOC(=O)c1cnn(-c2ccccc2)c1-c1ccccc1 | 7.07%
64 | COc1ccc(OC)c(S(=O)(=O)N2CCN(CC(O)COc3ccc(C#N)cc3)CC2)c1 (centres unmarked) | -66.2%
65 | CCN1C(=O)CC(C(=O)NC)SC1=Nc1cc(Cl)c(O)c(Cl)c1 (centres unmarked) | 22.1%
66 | Cc1cc([N+](=O)[O-])nn1CCCC(=O)Nc1ccc(Cl)cc1Cl | -27.9%

Row | SMILES | hERG current change (%, negative = inhibition) at 10uM
67 | Cc1ccc(-c2nnn(CC(=O)N(CC(=O)NCC3CCCO3)c3ccc(F)c(Cl)c3)n2)o1 (centres unmarked) | -4%
68 | COC(=O)CCC(=O)OC1(C)C(=O)C=C2C=C(C3CC3)OC=C2C1=O (centres unmarked) | 6.14%
69 | Cc1ccc(C)c(C(C)NC(=O)C2CCCC2)c1 (centres unmarked) | 12.2%
70 | C=CCN(C(=O)CCC(=O)O)C1CC(=O)N(c2ccc(OCCC)cc2)C1=O (centres unmarked) | 0.711%
71 | CCc1cc2c(=O)n(Cc3ccco3)c(SCC(=O)N3CCCc4ccccc43)nc2s1 | -23.4%
72 | CC(OC(=O)c1ccncc1)C(=O)Nc1cc(S(=O)(=O)N2CCCCC2)ccc1Cl (centres unmarked) | -15.5%
73 | FC(F)(F)c1cccc(NC(=S)NNC(=S)Nc2ccc(Cl)cc2)c1 | 14.1%
74 | CC(=O)NNc1ncnc2ccccc12 | 21.5%
75 | Br.COc1cccc(C(=O)CSc2nccn2C)c1 | 24.2%
76 | O=C(CCC1COc2ccccc2O1)NCC1COc2ccccc2O1 (centres unmarked) | -14.6%
77 | Cc1ccc(C(=O)NCCc2nnc3ccc(N4CCCC4)nn23)cc1 | 13%
78 | CCOC(=O)/C=C1\SCC(=O)N1CC(=O)Nc1ccc(C(C)C)cc1 | -29.8%
79 | COc1ccc(NC(=O)CSc2nnc(-c3ccccn3)n2Cc2ccco2)cc1OC | -39.2%
80 | COc1ccc(-c2cc(=O)oc3cc(OCC(=O)N4C[C@H]5C[C@@H](C4)c4cccc(=O)n4C5)ccc23)cc1 | -53.5%
81 | Cc1occc1C(=O)Nc1ccc2c(c1)CCC2 | -1.92%
82 | CCN1C[C@]2(CO)CC[C@H](OC)[C@@]34C2[C@H](OC)[C@@](O)(C13)[C@@]1(O)C[C@H](OC)[C@H]2C[C@@H]4[C@@H]1[C@H]2OC | 5.23%
83 | Cc1ccc(NC(=S)N(CCN(C)C)Cc2cc3cccc(C)c3[nH]c2=O)cc1 | -55.6%
84 | CCCOc1ccc(CN(C(=O)c2cccc(OC)c2)C2CCS(=O)(=O)C2)cc1 (centres unmarked) | -25.4%
85 | COc1ccccc1NC(=O)c1ccccc1NS(=O)(=O)N1CCCC1 | 7.27%
86 | O=C(OCc1ccccc1)c1cccc(-c2nnn(Cc3ccccc3)n2)c1 | 4.3%
